Over roughly 2,900 compounds, “NF-kB SEAP reporter activity, fold change vs agonist alone” has its median near 0.99; the highest 2% begin near 2.6. This is one part of the list.
Key:
[1] = test system: RAW-Dual; test: NF-kB SEAP reporter activity, fold change vs agonist alone; cytotoxicity flag (confluency mask): not cytotoxic; higher = enhanced NF-kB activity
Procedure, shortened: (§1)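 RAW-Dual macrophages were seeded in DMEM at 50,000 cells/well in 384-well plates, given 50 nL of library stock by pin tool, and given a PRR agonist 1 h later. Plates were held at 37 °C, 5% CO2 for 20 hours, after which supernatant was read for IRF by QuantiLuc luminescence and for NF-κB by QuantiBlue absorbance at 620 nm. Reporter activity is expressed as fold change over wells that received agonist alone. A well was called cytotoxic when IncuCyte confluency fell below 70% of agonist controls in both mask sets.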

[2] = test system: RAW-Dual; test: NF-kB SEAP reporter activity, fold change vs agonist alone; higher = enhanced NF-kB activity; settings: library stock concentration (final ~1000-fold dilution): 10 mM
Procedure, shortened: as §1

[3] = test system: RAW-Dual; test: NF-kB SEAP reporter activity, fold change vs agonist alone; cytotoxicity flag (confluency mask): cytotoxic (confluency <70% of control); higher = enhanced NF-kB activity
Procedure, shortened: as §1

[4] = agonist: ODN 1826 (TLR9) 0.5 ug/mL
[5] = agonist: Pam2CSK4 (TLR2/6) 0.1 ug/mL
[6] = agonist: Pam3CSK4 (TLR2/1) 0.1 ug/mL
[7] = cytotoxicity flag (confluency mask): not cytotoxic, agonist: Imiquimod (TLR7) […]
[8] = cytotoxicity flag (confluency mask): not cytotoxic, agonist: MPLA (TLR4) […]

COc1cccc(-c2ccc(NC(=O)C3=C(C(=O)O)CCC3)c(F)c2)c1 (library stock concentration (final ~1000-fold dilution): 10 mM)
NF-kB SEAP reporter activity ([1]; agonist: LPS (TLR4) 0.1 ug/mL): 0.752
NF-kB SEAP reporter activity [1, 4]: 1.37
NF-kB SEAP reporter activity [1, 5]: 0.847
NF-kB SEAP reporter activity [1, 6]: 1.19

CCCc1cc(C)[nH]c(=O)c1CNC(=O)c1cc(-c2ccc(N3CCN(C)CC3)nc2)nc2c1cnn2C(C)C
NF-kB SEAP reporter activity [2, 7]: 0.343
NF-kB SEAP reporter activity [2, 8]: 0.478

CCCc1cc(C)[nH]c(=O)c1CNC(=O)c1cc(-c2ccc(N3CCN(C)CC3)nc2)nc2c1cnn2C(C)C (library stock concentration (final ~1000-fold dilution): 10 mM)
NF-kB SEAP reporter activity ([1]; agonist: LPS (TLR4) 0.1 ug/mL): 0.827
NF-kB SEAP reporter activity [1, 4]: 0.752
NF-kB SEAP reporter activity [1, 5]: 0.837
NF-kB SEAP reporter activity [1, 6]: 0.714

COc1ccc(C(=O)CC2(O)C(=O)Nc3c(Cl)ccc(Cl)c32)cc1 (stereo not given)
NF-kB SEAP reporter activity [2, 7]: 0.903
NF-kB SEAP reporter activity [2, 8]: 0.831

COc1ccc(C(=O)CC2(O)C(=O)Nc3c(Cl)ccc(Cl)c32)cc1 (stereo not given) (library stock concentration (final ~1000-fold dilution): 10 mM)
NF-kB SEAP reporter activity ([1]; agonist: LPS (TLR4) 0.1 ug/mL): 0.776
NF-kB SEAP reporter activity [1, 4]: 0.749
NF-kB SEAP reporter activity [1, 5]: 0.48
NF-kB SEAP reporter activity [1, 6]: 0.581

O=C(NC1CCN(CCCCC2(C(=O)NCC(F)(F)F)c3ccccc3-c3ccccc32)CC1)c1ccccc1-c1ccc(C(F)(F)F)cc1 (library stock concentration (final ~1000-fold dilution): 10 mM)
NF-kB SEAP reporter activity ([3]; agonist: LPS (TLR4) 0.1 ug/mL): 0.351
NF-kB SEAP reporter activity [3, 4]: 0.196
NF-kB SEAP reporter activity [3, 5]: 0.249
NF-kB SEAP reporter activity [3, 6]: 0.157

O=C(NC1CCN(CCCCC2(C(=O)NCC(F)(F)F)c3ccccc3-c3ccccc32)CC1)c1ccccc1-c1ccc(C(F)(F)F)cc1
NF-kB SEAP reporter activity ([2]; cytotoxicity flag (confluency mask): cytotoxic (confluency <70% of control), agonist: Imiquimod (TLR7) […]): 0.6
NF-kB SEAP reporter activity ([2]; cytotoxicity flag (confluency mask): cytotoxic (confluency <70% of control), agonist: MPLA (TLR4) […]): 0.766

COS(=O)(=O)[O-].Cc1cc2c3c([n+](C)c4ccc(F)cc4c3c1)-c1cc(F)ccc1N2C (library stock concentration (final ~1000-fold dilution): 10 mM)
NF-kB SEAP reporter activity ([1]; agonist: LPS (TLR4) 0.1 ug/mL): 0.773
NF-kB SEAP reporter activity [1, 4]: 0.96
NF-kB SEAP reporter activity [1, 5]: 0.664
NF-kB SEAP reporter activity [1, 6]: 0.53

COS(=O)(=O)[O-].Cc1cc2c3c([n+](C)c4ccc(F)cc4c3c1)-c1cc(F)ccc1N2C
NF-kB SEAP reporter activity [2, 7]: 0.492
NF-kB SEAP reporter activity [2, 8]: 0.998

COc1cc(Nc2ncc(F)c(Nc3ccc4c(n3)NC(=O)C(C)(C)O4)n2)cc(OC)c1OC.O=S(=O)(O)c1ccccc1
NF-kB SEAP reporter activity [2, 7]: 0.897
NF-kB SEAP reporter activity [2, 8]: 0.963

COc1cc(Nc2ncc(F)c(Nc3ccc4c(n3)NC(=O)C(C)(C)O4)n2)cc(OC)c1OC.O=S(=O)(O)c1ccccc1 (library stock concentration (final ~1000-fold dilution): 10 mM)
NF-kB SEAP reporter activity ([1]; agonist: LPS (TLR4) 0.1 ug/mL): 0.615
NF-kB SEAP reporter activity [1, 4]: 0.94
NF-kB SEAP reporter activity [1, 5]: 0.285
NF-kB SEAP reporter activity [1, 6]: 0.848

C/C=C(/C)C(=O)OC1C(OC(C)=O)c2c(ccc3ccc(=O)oc23)OC1(C)C (stereo not given)
NF-kB SEAP reporter activity [2, 7]: 0.896
NF-kB SEAP reporter activity [2, 8]: 1.23

C/C=C(/C)C(=O)OC1C(OC(C)=O)c2c(ccc3ccc(=O)oc23)OC1(C)C (stereo not given) (library stock concentration (final ~1000-fold dilution): 10 mM)
NF-kB SEAP reporter activity ([1]; agonist: LPS (TLR4) 0.1 ug/mL): 0.93
NF-kB SEAP reporter activity [1, 4]: 0.822
NF-kB SEAP reporter activity [1, 5]: 0.562
NF-kB SEAP reporter activity [1, 6]: 0.729

Reference: the supplement of paper PMC10037445
